{"source": "PubChem BioAssay AID624296", "about": "(National Center for Advancing Translational Sciences (NCATS), 2012)", "note": "Out of some 350,000 compounds screened, about 9,900 (2.8%) were called active. Inconclusive means that the source gave no clear call. Such entries were picked first, then a sample of the others. Calls follow the shape of the dose curve; as a rule, active = well fitted activation curve with a large enough effect; inconclusive = small, poorly fitted or top-dose-only effect; inactive = no such curve, though single readings can be large or run the other way. No potency is given beside an inconclusive call; the fits are too rough. Potency is read from the fitted curve at half-maximal effect; tags tell the direction and shape of the fitted curve."}
{"assay": "A quantitative high throughput screen for small molecules that induce DNA re-replication in MCF 10a normal breast cells; also: nearly all actives have a fitted effect of over 50% in size; as to activity, positive = re-replication: % of control where 0% means no effect.", "details": "MCF 10A DNA re-replication, Hoechst nuclear intensity, 48 h; activity, positive = re-replication: at 46.1 µM (top of the series)"}
{"compound": "CCOc1ccc(NC(=O)Cn2nnc(C(=O)NCc3ccco3)c2N)cc1", "Potency": "inconclusive [activator, single point]"}
{"compound": "Cc1ccc(S(=O)(=O)N(C)C)cc1NC(=S)NNC(=O)C1CC1", "Potency": "inconclusive [activator, partial curve, poor fit]"}
{"compound": "O=C(/C=C/c1ccc(Br)cc1)Nc1ccc(S(=O)(=O)Nc2ncccn2)cc1", "Potency": "inconclusive [activator, partial curve, poor fit]"}
{"compound": "CCCn1c(SCC(=O)c2cc(C)ccc2C)n[nH]c1=O", "Potency": "inconclusive [activator, single point]"}
{"compound": "C/C(=N\\NC(=O)C(C)Oc1ccc([N+](=O)[O-])cc1)c1ccccn1", "note": "(centres undefined)", "Potency": "active: 14.6 µM"}
{"compound": "COc1ccc(-c2nnc(SCCC(=O)O)n2-c2ccccc2)cc1", "activity, positive = re-replication": "inactive: 1.85%"}
{"compound": "COC(=O)c1ccc(NCc2cc(O)ccc2O)cc1O", "Potency": "inconclusive [activator, full curve]"}
{"compound": "CCOC(=O)C(=CNc1ccc(C(F)(F)F)cc1)C(=O)OCC", "activity, positive = re-replication": "inactive: 5.67%"}
{"compound": "CCOC(=O)N1CCC(NC(=O)c2ccc3c(c2)N(Cc2ccccc2)CCS3)CC1", "activity, positive = re-replication": "inactive: 3.59%"}
{"compound": "Cc1cccc(C)c1OCc1nnc(SCC(=O)NCc2ccccc2)o1", "Potency": "inconclusive [activator, single point]"}
{"compound": "COc1ccc(OCCCC(=O)Nc2nc(-c3ccccn3)cs2)cc1", "activity, positive = re-replication": "inactive: 4.28%"}
{"compound": "COc1ccc(-n2nnnc2SCC(=O)c2cccc(OC)c2)cc1", "Potency": "inconclusive [activator, single point]"}
{"compound": "COC(=O)c1ccc(-c2ccco2)n1Cc1cc(C)ccc1C", "Potency": "inconclusive [activator, partial curve, poor fit]"}
{"compound": "CCOc1ccc(N2C(=O)CC(NCCNc3ccc([N+](=O)[O-])cn3)C2=O)cc1", "note": "(centres undefined)", "Potency": "inconclusive [activator, single point]"}
{"compound": "Cn1cc(CCNC(=O)CC2C(=O)NCCN2Cc2cccc(Oc3ccccc3)c2)cn1", "note": "(centres undefined)", "Potency": "inconclusive [activator, single point]"}
{"compound": "O=C(O)C1CC=CCC1C(=O)Nc1ccc(S(=O)(=O)N2CCCc3ccccc32)cc1", "note": "(centres undefined)", "Potency": "inconclusive [activator, full curve, poor fit]"}
{"compound": "CC(=O)N1c2ccc(C)cc2C(c2ccccc2)CC1C", "note": "(centres undefined)", "Potency": "inconclusive [activator, single point]"}
{"compound": "CCCC(c1nnnn1Cc1ccc(OC)cc1)N1CCN(c2ccccc2OC)CC1", "note": "(centres undefined)", "Potency": "inconclusive [activator, full curve, poor fit]"}
{"compound": "COc1ccc(CNC(=O)CN(Cc2ccccc2OC)C(=O)c2csnn2)cc1", "Potency": "inconclusive [activator, single point]"}
{"compound": "c1ccc(Cn2nnc3c(N4CCc5ccccc5C4)ncnc32)cc1", "Potency": "inconclusive [activator, partial curve, poor fit]"}
{"compound": "CC(C)CSc1ccc(S(=O)(=O)NCC(=O)O)cc1[N+](=O)[O-]", "Potency": "inconclusive [activator, partial curve, poor fit]"}
{"compound": "COc1ccc(S(=O)(=O)N2CCOCC2)cc1NC(=O)c1cc2ccccc2o1", "Potency": "inconclusive [activator, partial curve]"}
{"compound": "O=C(/C=C/c1ccccc1Cl)c1cccnc1", "Potency": "active: 5.8 µM"}
{"compound": "COC(C[C@@H]1O[C@H]1[C@H](O)COCc1ccccc1)OC", "Potency": "inconclusive [activator, single point]"}
{"compound": "CC(C)(Sc1cc(C(C)(C)C)c(O)c(C(C)(C)C)c1)Sc1cc(C(C)(C)C)c(O)c(C(C)(C)C)c1", "Potency": "inactive"}
{"compound": "CC1CCN(C(=S)NC(=O)c2ccc(C(C)(C)C)cc2)CC1", "Potency": "inconclusive [activator, single point]"}
{"compound": "CN(Cc1c(C(=O)N/N=C/c2cc(F)ccc2F)nnn1-c1nonc1N)C1CCCCC1", "activity, positive = re-replication": "inactive: -50.5%"}
{"compound": "CCn1c(SCC(=O)N/N=C/c2c[nH]c3ccccc23)nnc1-c1ccc(Cl)cc1", "Potency": "inconclusive [activator, partial curve]"}
{"compound": "COC(=O)C1CN(S(=O)(=O)c2cc(OC)ccc2OC)CCS1", "note": "(centres undefined)", "activity, positive = re-replication": "inactive: 1.7%"}
{"compound": "O=C(/C=C/c1ccco1)Nc1nnc(-c2ccco2)s1", "Potency": "active: 5.8 µM"}
{"compound": "CCOc1ccc2nc(SC3CC(=O)N(c4ccc(OC)cc4OC)C3=O)sc2c1", "note": "(centres undefined)", "Potency": "inconclusive [activator, single point]"}
{"compound": "Cc1cccc(NC2=C(C#N)C(=O)NC3(CCCC3)S2)c1", "Potency": "inconclusive [activator, single point]"}
{"compound": "O=C(Nc1ccc(O)cc1)c1ccc(NC(=O)c2cccs2)cc1", "Potency": "active: 18.4 µM"}
{"compound": "CCOc1ccc(/C(O)=C2/C(=O)C(=O)N(CCCN3CCOCC3)C2c2ccc(C)cc2)cc1C", "note": "(centres undefined)", "activity, positive = re-replication": "inactive: 2.54%"}
{"compound": "CCN(CC)S(=O)(=O)c1cccc(C(=O)N/N=C/c2ccccc2OCC(=O)O)c1", "activity, positive = re-replication": "inactive: -27.4%"}
{"compound": "COc1ccc(CC(=O)NC(C)c2nnc(SCCC(=O)Nc3ccccc3)n2C)cc1", "note": "(centres undefined)", "activity, positive = re-replication": "inactive: -5.01%"}
{"compound": "Cc1[nH]c2ccccc2c1SCc1n[nH]c(=S)n1C", "activity, positive = re-replication": "inactive: 0.472%"}
{"compound": "CN1CCCN(S(=O)(=O)c2ccccc2)c2nc3ccccc3nc21", "Potency": "inconclusive [activator, partial curve, poor fit]"}
{"compound": "CC(C)CCNC(=O)NC(=O)CSc1nnc(-c2ccccc2F)n1N", "activity, positive = re-replication": "inactive: 2.42%"}
{"compound": "CS(=O)(=O)c1ccccc1C(=O)N1CCN(S(=O)(=O)c2ccc(C3CCCCC3)cc2)CC1", "Potency": "inconclusive [activator, partial curve]"}
{"compound": "Cc1ccc(SC[C@H](Cc2ccccc2)N2CCN(CC(C)C)CCC2=O)cc1", "Potency": "inconclusive [activator, single point]"}
{"compound": "C/C(=N\\NC(N)=S)c1ccc(-n2ccnc2)cc1", "activity, positive = re-replication": "inactive: 1.33%"}
{"compound": "COc1ccccc1-c1cc(C(F)(F)F)nc(N2CCN(c3ccccc3)CC2)n1", "Potency": "inconclusive [activator, partial curve, poor fit]"}
{"compound": "Cc1ccc(CSCC(Nc2ccc(C(=O)O)cc2[N+](=O)[O-])C(=O)O)cc1", "note": "(centres undefined)", "Potency": "inconclusive [activator, full curve, poor fit]"}
